# Laboratory results published in the supplement of paper PMC8728848.
# The list shows a part of the results.
# B1: MAL-II (Maackia amurensis), P93248 (protein)
# chain: ATSNSKPTQVLLATFLTFFFLLLNNVNSSDELSFTINNFVPNEADLLFQGEASVSSTGVLQLTRVENGQPQQYSVGRALYAAPVRIWDNTTGSVASFSTSFTFVVKAPNPTITSDGLAFFLAPPDSQIPSGRVSKYLGLFNNSNSDSSNQIVAVEFDTYFGHSYDPWDPNYRHIGIDVNGIESIKTVQWDWINGGVAFATITYLAPNKTLIASLVYPSNQTSFIVAASVDLKEILPEWVRVGFSAATGYPTQVETHDVLSWSFTSTLEANSDAATENNVHIARYTA
# How the values were obtained:
# Assay in all cases: glycan array binding signal (z-score within array); higher = stronger binding
# Details in all cases: glycan notation: IUPAC condensed, linker removed
# [1] = biological target: Fuc(a1-3)[Gal3S(b1-4)]GlcNAc6S
# Procedure, shortened: (§1)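 Columns mapping to the same glycan were averaged after glycan names were converted to IUPAC-condensed notation. The data come from 3228 arrays in the Consortium for Functional Glycomics database, limited to those with an available protein sequence. Binding is reported as a within-array Z-score averaged across arrays of one protein sequence and across linkers.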
# [2] = biological target: Fuc(a1-3)[GalNAc(b1-4)]GlcNAc
# Procedure, shortened: as §1
# [3] = biological target: Fuc(a1-3)[GalNAc(b1-4)]GlcNAc6S
# Procedure, shortened: as §1
# Fuc(a1-4)GlcNAc = biological target: Fuc(a1-4)GlcNAc
# Procedure, shortened: as §1
# Fuc(b1-3)GlcNAc = biological target: Fuc(b1-3)GlcNAc
# Procedure, shortened: as §1
# Gal(a1-2)Gal = biological target: Gal(a1-2)Gal
# Procedure, shortened: as §1
# Gal(a1-3)Gal = biological target: Gal(a1-3)Gal
# Procedure, shortened: as §1
# Gal(a1-3)Gal(b1-3)GlcNAc = biological target: Gal(a1-3)Gal(b1-3)GlcNAc
# Procedure, shortened: as §1
# [4] = biological target: Gal(a1-3)Gal(b1-3)GlcNAc(b1-2)Man
# Procedure, shortened: as §1
# [5] = biological target: Gal(a1-3)Gal(b1-3)GlcNAc(b1-2)Man(a1-3)[Gal(a1-3)Gal(b1-3)GlcNAc(b1-2)Man(a1-6)]Man(b1-4)GlcNAc(b1-4)GlcNAc
# Procedure, shortened: as §1
# [6] = biological target: Gal(a1-3)Gal(b1-3)GlcNAc(b1-3)GalNAc
# Procedure, shortened: as §1
# [7] = biological target: Gal(a1-3)Gal(b1-3)GlcNAc(b1-6)GalNAc
# Procedure, shortened: as §1
# [8] = biological target: Gal(a1-3)Gal(b1-3)[Fuc(a1-4)]GlcNAc(b1-2)Man(a1-3)[Gal(a1-3)Gal(b1-3)[Fuc(a1-4)]GlcNAc(b1-2)Man(a1-6)]Man(b1-4)GlcNAc(b1-4)GlcNAc
# Procedure, shortened: as §1
# Gal(a1-3)Gal(b1-4)Glc = biological target: Gal(a1-3)Gal(b1-4)Glc
# Procedure, shortened: as §1
# Gal(a1-3)Gal(b1-4)GlcNAc = biological target: Gal(a1-3)Gal(b1-4)GlcNAc
# Procedure, shortened: as §1
# [9] = biological target: Gal(a1-3)Gal(b1-4)GlcNAc(b1-2)Man
# Procedure, shortened: as §1
# [10] = biological target: Gal(a1-3)Gal(b1-4)GlcNAc(b1-2)Man(a1-3)[Gal(a1-3)Gal(b1-4)GlcNAc(b1-2)Man(a1-6)]Man(b1-4)GlcNAc(b1-4)GlcNAc
# Procedure, shortened: as §1
# [11] = biological target: Gal(a1-3)Gal(b1-4)GlcNAc(b1-3)GalNAc
# Procedure, shortened: as §1
# [12] = biological target: Gal(a1-3)Gal(b1-4)GlcNAc(b1-6)GalNAc
# Procedure, shortened: as §1
# [13] = biological target: Gal(a1-3)Gal(b1-4)[Fuc(a1-3)]GlcNAc
# Procedure, shortened: as §1
# [14] = biological target: Gal(a1-3)Gal(b1-4)[Fuc(a1-3)]GlcNAc(b1-2)Man(a1-3)[Gal(a1-3)Gal(b1-4)[Fuc(a1-3)]GlcNAc(b1-2)Man(a1-6)]Man(b1-4)GlcNAc(b1-4)GlcNAc
# Procedure, shortened: as §1
# Gal(a1-3)GalNAc = biological target: Gal(a1-3)GalNAc
# Procedure, shortened: as §1
# [15] = biological target: Gal(a1-3)[Gal(a1-4)]Gal(b1-4)GlcNAc
# Procedure, shortened: as §1
# [16] = biological target: Gal(a1-4)Gal(b1-3)GlcNAc(b1-2)Man(a1-3)[Gal(a1-4)Gal(b1-3)GlcNAc(b1-2)Man(a1-6)]Man(b1-4)GlcNAc(b1-4)GlcNAc
# Procedure, shortened: as §1
# Gal(a1-4)Gal(b1-4)Glc = biological target: Gal(a1-4)Gal(b1-4)Glc
# Procedure, shortened: as §1
# Gal(a1-4)Gal(b1-4)GlcNAc = biological target: Gal(a1-4)Gal(b1-4)GlcNAc
# Procedure, shortened: as §1
# [17] = biological target: Gal(a1-4)Gal(b1-4)GlcNAc(b1-2)Man(a1-3)[Gal(a1-4)Gal(b1-4)GlcNAc(b1-2)Man(a1-6)]Man(b1-4)GlcNAc(b1-4)GlcNAc
# Procedure, shortened: as §1
# [18] = biological target: Gal(a1-4)Gal(b1-4)GlcNAc(b1-3)Gal(b1-4)Glc
# Procedure, shortened: as §1
# Gal(a1-4)GlcNAc = biological target: Gal(a1-4)GlcNAc
# Procedure, shortened: as §1
# Gal(a1-6)Glc = biological target: Gal(a1-6)Glc
# Procedure, shortened: as §1
# Gal(b1-2)Gal = biological target: Gal(b1-2)Gal
# Procedure, shortened: as §1
# Gal(b1-3)Gal = biological target: Gal(b1-3)Gal
# Procedure, shortened: as §1
# Gal(b1-3)Gal(b1-4)GlcNAc = biological target: Gal(b1-3)Gal(b1-4)GlcNAc
# Procedure, shortened: as §1
# [19] = biological target: Gal(b1-3)Gal(b1-4)GlcNAc(b1-2)Man(a1-3)[Gal(b1-3)Gal(b1-4)GlcNAc(b1-2)Man(a1-6)]Man(b1-4)GlcNAc(b1-4)GlcNAc
# Procedure, shortened: as §1
# Gal(b1-3)GalNAc = biological target: Gal(b1-3)GalNAc
# Procedure, shortened: as §1
# [20] = biological target: Gal(b1-3)GalNAc(a1-3)[Fuc(a1-2)]Gal(b1-4)Glc
# Procedure, shortened: as §1
# [21] = biological target: Gal(b1-3)GalNAc(a1-3)[Fuc(a1-2)]Gal(b1-4)GlcNAc
# Procedure, shortened: as §1
# Gal(b1-3)GalNAc(b1-3)Gal = biological target: Gal(b1-3)GalNAc(b1-3)Gal
# Procedure, shortened: as §1
binder,measurement,setting,value
B1,glycan array binding signal (z-score),[1],0.328
same,glycan array binding signal (z-score),[2],-0.187
same,glycan array binding signal (z-score),[3],-0.208
same,glycan array binding signal (z-score),Fuc(a1-4)GlcNAc,-0.241
same,glycan array binding signal (z-score),Fuc(b1-3)GlcNAc,-0.216
same,glycan array binding signal (z-score),Gal(a1-2)Gal,-0.208
same,glycan array binding signal (z-score),Gal(a1-3)Gal,-0.164
same,glycan array binding signal (z-score),Gal(a1-3)Gal(b1-3)GlcNAc,-0.205
same,glycan array binding signal (z-score),[4],-0.305
same,glycan array binding signal (z-score),[5],1.08
same,glycan array binding signal (z-score),[6],-0.197
same,glycan array binding signal (z-score),[7],-0.242
same,glycan array binding signal (z-score),[8],0.41
same,glycan array binding signal (z-score),Gal(a1-3)Gal(b1-4)Glc,-0.167
same,glycan array binding signal (z-score),Gal(a1-3)Gal(b1-4)GlcNAc,-0.135
same,glycan array binding signal (z-score),[9],-0.188
same,glycan array binding signal (z-score),[10],0.244
same,glycan array binding signal (z-score),[11],-0.181
same,glycan array binding signal (z-score),[12],-0.211
same,glycan array binding signal (z-score),[13],-0.193
same,glycan array binding signal (z-score),[14],-0.169
same,glycan array binding signal (z-score),Gal(a1-3)GalNAc,-0.218
same,glycan array binding signal (z-score),[15],-0.252
same,glycan array binding signal (z-score),[16],-0.08
same,glycan array binding signal (z-score),Gal(a1-4)Gal(b1-4)Glc,-0.133
same,glycan array binding signal (z-score),Gal(a1-4)Gal(b1-4)GlcNAc,-0.185
same,glycan array binding signal (z-score),[17],0.023
same,glycan array binding signal (z-score),[18],-0.187
same,glycan array binding signal (z-score),Gal(a1-4)GlcNAc,-0.208
same,glycan array binding signal (z-score),Gal(a1-6)Glc,-0.221
same,glycan array binding signal (z-score),Gal(b1-2)Gal,-0.225
same,glycan array binding signal (z-score),Gal(b1-3)Gal,-0.196
same,glycan array binding signal (z-score),Gal(b1-3)Gal(b1-4)GlcNAc,-0.1
same,glycan array binding signal (z-score),[19],-0.222
same,glycan array binding signal (z-score),Gal(b1-3)GalNAc,-0.176
same,glycan array binding signal (z-score),[20],-0.212
same,glycan array binding signal (z-score),[21],-0.239
same,glycan array binding signal (z-score),Gal(b1-3)GalNAc(b1-3)Gal,-0.198
